Test results reported in article doi:10.1101/2024.11.04.621988.
No constants are given. Whether binding was seen depends on the method and setting. For some assays here: In cells and extracts the contact can be indirect. Some binding calls cover weakened binding; strength is not graded here. For some assays here: Sequences can lack the tags named with a protein.

Chains of the proteins cited; added tags and fusions are not shown.
UniProt P43583: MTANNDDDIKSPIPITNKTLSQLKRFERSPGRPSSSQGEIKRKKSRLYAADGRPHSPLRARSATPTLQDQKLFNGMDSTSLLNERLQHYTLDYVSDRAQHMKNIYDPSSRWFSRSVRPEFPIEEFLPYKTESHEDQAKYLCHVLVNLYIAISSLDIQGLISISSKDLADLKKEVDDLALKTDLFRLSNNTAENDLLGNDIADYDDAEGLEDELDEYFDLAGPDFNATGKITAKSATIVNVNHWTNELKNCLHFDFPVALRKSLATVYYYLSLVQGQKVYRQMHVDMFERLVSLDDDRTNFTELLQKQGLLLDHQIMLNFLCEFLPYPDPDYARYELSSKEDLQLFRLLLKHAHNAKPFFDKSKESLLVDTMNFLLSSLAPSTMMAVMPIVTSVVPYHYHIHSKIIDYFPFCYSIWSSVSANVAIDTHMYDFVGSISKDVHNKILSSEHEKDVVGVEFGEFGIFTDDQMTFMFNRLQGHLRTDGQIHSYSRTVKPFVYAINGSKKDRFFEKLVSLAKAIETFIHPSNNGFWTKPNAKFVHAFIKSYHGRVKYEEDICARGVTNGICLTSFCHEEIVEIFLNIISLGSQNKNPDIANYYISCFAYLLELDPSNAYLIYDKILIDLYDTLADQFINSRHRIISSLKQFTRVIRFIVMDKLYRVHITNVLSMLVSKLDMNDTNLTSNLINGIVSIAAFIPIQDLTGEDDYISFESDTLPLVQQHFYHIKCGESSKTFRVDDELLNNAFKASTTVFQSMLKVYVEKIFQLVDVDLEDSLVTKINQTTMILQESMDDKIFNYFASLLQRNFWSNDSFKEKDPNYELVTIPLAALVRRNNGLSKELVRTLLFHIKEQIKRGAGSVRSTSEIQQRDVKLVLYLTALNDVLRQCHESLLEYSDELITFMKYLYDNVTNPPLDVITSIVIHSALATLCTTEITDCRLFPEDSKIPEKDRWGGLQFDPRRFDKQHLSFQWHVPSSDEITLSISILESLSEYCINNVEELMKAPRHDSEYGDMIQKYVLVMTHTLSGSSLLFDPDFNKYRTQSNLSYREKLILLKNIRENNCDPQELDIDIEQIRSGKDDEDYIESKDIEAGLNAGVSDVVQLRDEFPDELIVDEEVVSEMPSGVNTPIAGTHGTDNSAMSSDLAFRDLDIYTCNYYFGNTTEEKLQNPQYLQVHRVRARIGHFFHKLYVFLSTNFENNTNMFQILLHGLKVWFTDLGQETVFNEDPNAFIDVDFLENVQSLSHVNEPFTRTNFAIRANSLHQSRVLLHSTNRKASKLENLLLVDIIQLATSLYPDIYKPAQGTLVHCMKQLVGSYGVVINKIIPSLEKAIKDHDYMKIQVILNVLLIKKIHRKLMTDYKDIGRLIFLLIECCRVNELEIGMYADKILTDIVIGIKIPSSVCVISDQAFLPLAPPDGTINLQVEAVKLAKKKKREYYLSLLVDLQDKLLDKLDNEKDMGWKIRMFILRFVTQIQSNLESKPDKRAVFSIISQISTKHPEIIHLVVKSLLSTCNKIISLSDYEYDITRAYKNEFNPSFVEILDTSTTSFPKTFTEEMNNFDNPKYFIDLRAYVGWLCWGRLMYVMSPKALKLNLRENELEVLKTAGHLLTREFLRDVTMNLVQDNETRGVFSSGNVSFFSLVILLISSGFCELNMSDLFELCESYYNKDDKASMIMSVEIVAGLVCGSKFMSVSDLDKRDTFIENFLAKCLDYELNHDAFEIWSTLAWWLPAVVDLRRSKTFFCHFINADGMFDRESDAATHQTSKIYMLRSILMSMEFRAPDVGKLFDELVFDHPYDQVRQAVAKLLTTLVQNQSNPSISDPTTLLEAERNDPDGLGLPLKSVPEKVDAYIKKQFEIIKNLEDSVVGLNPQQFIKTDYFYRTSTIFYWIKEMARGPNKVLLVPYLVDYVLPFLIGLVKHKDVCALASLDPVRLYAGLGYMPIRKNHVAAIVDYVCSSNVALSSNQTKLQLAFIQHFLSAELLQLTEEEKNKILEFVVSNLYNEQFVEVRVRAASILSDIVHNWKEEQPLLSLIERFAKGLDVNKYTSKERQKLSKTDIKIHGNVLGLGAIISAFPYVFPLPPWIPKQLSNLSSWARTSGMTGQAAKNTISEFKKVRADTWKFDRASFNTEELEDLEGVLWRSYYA

T1: Ump1 (C-terminally TAP-tagged, after TEV cleavage, CBP part kept) (yeast) (UniProt P38293)
T1 sequence: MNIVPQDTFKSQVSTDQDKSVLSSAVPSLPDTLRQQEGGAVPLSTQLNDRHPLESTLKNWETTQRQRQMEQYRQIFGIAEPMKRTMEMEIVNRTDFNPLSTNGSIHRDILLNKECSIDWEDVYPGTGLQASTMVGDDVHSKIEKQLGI

T2: proteasome core particle subunit α3 (yeast (endogenous in the yeast strain)) (UniProt P23638)
T2 sequence: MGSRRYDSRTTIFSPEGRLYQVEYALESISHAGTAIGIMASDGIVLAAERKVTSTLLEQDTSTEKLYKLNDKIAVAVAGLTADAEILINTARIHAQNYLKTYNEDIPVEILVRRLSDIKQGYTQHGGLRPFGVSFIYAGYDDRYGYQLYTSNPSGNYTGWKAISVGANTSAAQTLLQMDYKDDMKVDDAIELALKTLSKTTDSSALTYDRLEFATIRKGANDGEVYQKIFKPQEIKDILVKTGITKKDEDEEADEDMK

T3: proteasome core particle subunit α5 (yeast (endogenous in the yeast strain)) (UniProt P32379)
T3 sequence: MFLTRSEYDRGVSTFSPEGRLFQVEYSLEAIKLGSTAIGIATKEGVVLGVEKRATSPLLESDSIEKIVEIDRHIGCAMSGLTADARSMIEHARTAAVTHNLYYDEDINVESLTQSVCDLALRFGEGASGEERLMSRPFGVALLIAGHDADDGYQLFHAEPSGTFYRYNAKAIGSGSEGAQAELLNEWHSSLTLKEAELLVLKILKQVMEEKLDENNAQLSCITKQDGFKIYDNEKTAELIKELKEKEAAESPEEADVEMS

T4: Pba4-TAP (yeast) (UniProt Q12245)
T4 sequence: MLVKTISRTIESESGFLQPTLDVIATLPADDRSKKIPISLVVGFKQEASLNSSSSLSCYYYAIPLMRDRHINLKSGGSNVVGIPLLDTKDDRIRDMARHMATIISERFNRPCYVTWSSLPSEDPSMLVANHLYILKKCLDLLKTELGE

B1: Pba1/Pba2 (complex, UniProt Q05778 1-276; P36040 1-267)
chain 1: MLFKQWNDLPEPKHLLDLPEISKNLQSLEVCPVPKVEFPQDLDVPQYSTAVITTKIMNPLFPKNLLQLTSIGEIKTTLTVKSPSLPQSSGKHSWNYDENFPNEVDPDQKNDTADETVYGFSFPIYSFGKTLLFSMEENFISISPIFGNMISRSIISQLAQFSPDIIVIGTSDKIASMKVMTENECTLQPPEFITGFIGSVLTQLIVGPSKGLKFKCLVAPSEGPNGFEKLSLSDMGSLVDLCGQWLGFEPSRYSEECYRLWRCDSAAIGAQSGLYI
chain 2: MSCLVLPLVSVGNIPQLSIDWLLNSQANEWEYLEALDSKYLVEFVGPLDRPEDGSDSLYKDADMKYSSALEVFYNKKRGLFAIQQRTPLVSVNYLNNFIVEIILPFLSKYNISEICIWDSLYAMEDENGVIVRPQEVYSLGEFYFDDEAELLSNLHLNDQESMVNNWLHFTPTSFQDKISVDQPIFKILFQILNASQRPKALRSIKYCSCLANEGDNSLDSQQFLQWIISQKVIKNAPPIVKFVRPISWQGAYGMADARDKFVDLYN

Legend:
[1] = biological target: T1, Ump1 (C-terminally TAP-tagged, after TEV cleavage, CBP part kept) (yeast); assay: cryo-EM structure; assembly intermediates formed in a pba1Δ yeast strain and purified as complexes through Ump1-TAP (IgG beads, TEV, calmodulin resin, EGTA elution); 1.8 or 0.9 mg/mL vitrified; five complexes sorted from one data set
[2] = biological target: T2, proteasome core particle subunit α3 (yeast (endogenous in the yeast strain)); assay: as above
[3] = biological target: T3, proteasome core particle subunit α5 (yeast (endogenous in the yeast strain)); assay: as above
Pba4-TAP (yeast) = biological target: T4, Pba4-TAP (yeast); assay: pull-down; TAP-tagged bait (Ump1-TAP or Pba4-TAP) captured from yeast lysate on calmodulin resin, 1 h at 4 °C, 50 mM Tris-HCl pH 7.5, 5 mM MgCl2, 1 mM ATP, 2 mM CaCl2; washes with 50 mM NaCl; SDS-PAGE and immunoblot; some strains with Blm10 overexpressed

Molecule | binding [1] | binding [2] | binding [3] | binding (Pba4-TAP (yeast))
Blm10 (from UniProt P43583 1-2143) | no binding | binds | binds | binds
B1 |  |  |  | binds
